Experimental findings from patent US7083949 are described below.

Assay in all cases: cell-based or functional assay
The target in assay [1] is human IL-13 (human) (UniProt P35225).
Assay [2] has as its target human IL-4 (human) (UniProt P05112).
In assay [3] the target is recombinant human IL-1 (human).

Sequence of UniProt P05112 (P05112 25-153 limits assumed): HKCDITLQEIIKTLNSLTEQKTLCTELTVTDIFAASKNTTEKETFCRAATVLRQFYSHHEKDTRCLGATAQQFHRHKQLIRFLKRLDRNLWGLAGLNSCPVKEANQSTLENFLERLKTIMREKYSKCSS
Sequence of UniProt P35225 (P35225 35-146 limits assumed): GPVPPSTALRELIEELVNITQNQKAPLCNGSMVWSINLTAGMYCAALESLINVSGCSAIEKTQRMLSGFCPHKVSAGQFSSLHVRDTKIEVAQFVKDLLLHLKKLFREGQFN

B1: IL-4/IL-13 Trap 1126 (Fc fusion)
chain: GGGGAAPTETQPPVTNLSVSVENLSTVIWTWNPPEGASSNCSLWYFSHFGDKQDKKIAPETRRSIEVPLNERICLQVGSQCSTNESEKPSILVEKCISPPEGDPESAVTELQCIWHNLSYMKCSWLPGRNTSPDTNYTLYYWHRSLEKIHQCENIFREGQYFGCSFDLTKVKDSSFEQHSVQIMVKDNAGKIKPSFNIVPLTSRVKPDPPHIKNLSFHNDDLYVQWENPQNFISRCLFYEVEVNNSQTETHNVFYVQEAKCENPEFERNVENTSCFMVPGVLPDTLNTVRIRVKTNKLCYEDDKLWSNWSQEMSIGNMKVLQGKKRNSTEPTCVSDYMSISTCEWKMNGPTNCSTELRLLYQLVFLLSEAHTCIPENNGGAGCVCHLLMDDVVSADNYTLDLWAGQQLLWKGSFKPSEHVKPRAPGNLTVHTNVSDTLLLTWSNPYPPDNYLYNHLTYAVNIWSENDPADFRIYNVTYLEPSLRIAASTLKSGISYRARVRAWAQSYNTTWSEWSPSTKWHNSYREPFEQSG[not shown - human IgG1 Fc]
As to B1, the TF1 bioassay; activity against Trap 943 (fold better than Trap 943) in assay [1] and in assay [2] was 2 to 3 in each case.

B2: IL-4/IL-13 Trap 1130 (Fc fusion)
chain: GGGGAAPTETQPPVTNLSVSVENLATVIWTWNPPEGASSNCSLWYFSHFGDKQDKKIAPETRRSIEVPLNERICLQVGSQCSTNESEKPSILVEKCISPPEGDPESAVTELQCIWHNLSYMKCSWLPGRNTSPDTNYTLYYWHRSLEKIHQCENIFREGQYFGCSFDLTKVKDSSFEQHSVQIMVKDNAGKIKPSFNIVPLTSRVKPDPPHIKNLSFHNDDLYVQWENPQNFISRCLFYEVEVNNSQTETHNVFYVQEAKCENPEFERNVENTSCFMVPGVLPDTLNTVRIRVKTNKLCYEDDKLWSNWSQEMSIGNMKVLQGKKRNSTEPTCVSDYMSISTCEWKMNGPTNCSTELRLLYQLVFLLSEAHTCIPENNGGAGCVCHLLMDDVVSADNYTLDLWAGQQLLWKGSFKPSEHVKPRAPGNLTVHTNVSDTLLLTWSNPYPPDNYLYNHLTYAVNIWSENDPADFRIYNVTYLEPSLRIAASTLKSGISYRARVRAWAQSYNTTWSEWSPSTKWHNSYREPFEQSG[not shown - human IgG1 Fc]
Take B2: the TF1 bioassay; activity against Trap 943 (fold better than Trap 943) in assay [1] and in assay [2] was 2 to 3 in each case.

B3: IL1 Trap 1SC569 (Fc fusion)
chain: SERCDDWGLDTMRQIQVFEDEPARIKCPLFEHFLKFNYSTAHSAGLTLIWYWTRQDRDLEEPINFRLPENRISKEKDVLWFRPTLLNDTGNYTCMLRNTTYCSKVAFPLEVVQKDSCFNSPMKLPVHKLYIEYGIQRITCPNVDGYFPSSVKPTITWYMGCYKIQNFNNVIPEGMNLSFLIALISNNGNYTCVVTYPENGRTFHLTRTLTVKVVGSPKNAVPPVIHSPNDHVVYEKEPGEELLIPCTVYFSFLMDSRNEVWWTIDGKKPDDITIDVTINESISHSRTEDETRTQILSIKKVTSEDLKRSYVCHARSAKGEVAKAAKVKQKVPAPRYTVSGGAPMLSEADKCKEREEKIILVSSANEIDVRPCPLNPNEHKGTITWYKDDSKTPVSTEQASRIHQHKEKLWFVPAKVEDSGHYYCVVRNSSYCLRIKISAKFVENEPNLCYNAQAIFKQKLPVAGDGGLVCPYMEFFKNENNELPKLQWYKDCKPLLLDNIHFSGVKDRLIVMNVAEKHRGNYTCHASYTYLGKQYPITRVIEFITLEENKPTRPVIVSPANETMEVDLGSQIQLICNVTGQLSDIAYWKWNGSVIDEDDPVLGEDYYSVENPANKRRSTLITVLNISEIESRFYKHPFTCFAKNTHGIDAAYIQLIYPVTNSG[not shown - human IgG1 Fc]
With B3, in assay [3], the IL-1-dependent production of IL-6 by MRC5 cells; fold against IL1RI.Fc (fold better than IL1RI.Fc) stood at 100 and the IL-1-dependent production of IL-6 by MRC5 cells; highest IL-1 concentration blocked by 10 nM Trap came out at 3 nM.
